The text below walks through data of article PMC4242493.

The list shows a part of the results. The list includes weakly bound sequences.

The target of the test is MaxL homodimer (UniProt P61244). As to the kind of experiment: universal protein-binding microarray (PBM). The conditions noted are these: PBS-based mixture, 10 nM His-tagged protein dimer, 2% milk, 200 ng/uL BSA, 50 ng/uL salmon testes DNA, 0.02% TX-100; detection with Alexa 488 anti-His …; high values mean tight binding; most listed sequences are background and not binding sites; double strand, one strand shown.
Chain of UniProt P61244 (P61244 whole entry): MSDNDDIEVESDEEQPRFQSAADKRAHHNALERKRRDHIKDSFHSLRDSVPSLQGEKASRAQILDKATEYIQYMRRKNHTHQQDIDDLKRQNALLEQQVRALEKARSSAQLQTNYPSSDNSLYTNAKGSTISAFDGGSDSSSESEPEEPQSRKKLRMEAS
In the case of GGCCCCCA, the binding signal (normalized occupancy) was 0.0743. The value for ATCTGCAC was 0.0822. With CGCTGGTC the figure was 0.0727; with GCCGCCGC, 0.0692. The value for CCGGGATC was 0.0724; that for AGGTTGCG was 0.0716; that for ACACAGAG was 0.0759. Take CCTTGAAG: the binding signal (normalized occupancy) stood at 0.0754. For the sequence GGTAAAAA, the binding signal (normalized occupancy) was found to be 0.0729. The value for TAACGCCA was 0.0773; that for GGTCCTTA was 0.0704; that for ACATGTAT was 0.102.

Consider AGGCGCTA, for which the binding signal (normalized occupancy) was 0.0711.

With GCATTTTA, the binding signal (normalized occupancy) turned out to be 0.0806.

For CATATGTA, the binding signal (normalized occupancy) was found to be 0.0972.

For GTATCGAA, the binding signal (normalized occupancy) was 0.0739. The value for ACCGCAAG was 0.0725; that for AACATACT was 0.0837; that for ATCAGCCA was 0.0757. With AAAATCAA the figure was 0.0734; with CAGCAGCA, 0.0747; with CGTAGTGC, 0.0696. With CACTCCCA the figure was 0.0792; with CACTTGCC, 0.0771; with ACGCAAGT, 0.0755.

For the sequence CCTTCCGC, the binding signal (normalized occupancy) is 0.0677. The value for CCACGGAA was 0.0752. With GAATGGCC the figure was 0.0739; with GGGGCGCA, 0.0759. With ATCGCTTA the figure was 0.0749; with CGGCTTCA, 0.0678. Take CTTAAACC: the binding signal (normalized occupancy) was 0.0746. With GTACATAA the figure was 0.079; with ACAAAAGC, 0.0695; with GGTCTCTA, 0.0745. With CATCCGAA the figure was 0.0798. The value for CCTAGCAC was 0.0765; that for CAGTTTAC was 0.0779. Consider CGTCTTAA, for which the binding signal (normalized occupancy) was 0.0682.

Take GATGGACC: the binding signal (normalized occupancy) was 0.0737. Turning to ATACGAAG, the binding signal (normalized occupancy) was 0.0749. With TCGGGTCA the figure was 0.0737; with AACTCGTA, 0.0764; with AACCCATC, 0.0817.

In the case of TCGCCGCA, the binding signal (normalized occupancy) was determined as 0.0715. The value for AACTGGTA was 0.0716; that for CCCAAAGC was 0.0696. The value for CAAATGTC was 0.0771; that for AGTCTTAG was 0.0721. With AGGTGAAA the figure was 0.0675. Regarding CTTGAGAA, the binding signal (normalized occupancy) was 0.0806.

As for AGACCAGG, the binding signal (normalized occupancy) amounted to 0.074. GCTACGGA: the binding signal (normalized occupancy) was 0.0738.

Take AACTTGCC: the binding signal (normalized occupancy) was determined as 0.0757. With AGTCGTCA the figure was 0.0763; with GAGATCAA, 0.075; with CACGTATC, 0.0863.

AACTTCTT: the binding signal (normalized occupancy) came to 0.0704. For CACCTGAG, the binding signal (normalized occupancy) amounted to 0.0741.

With ACGTTAAC, the binding signal (normalized occupancy) worked out at 0.0835. The value for ACATGAAT was 0.0965; that for ACAAATAG was 0.0784.

Take ACATCACG: the binding signal (normalized occupancy) amounted to 0.0884. With ATGTCGAA, the binding signal (normalized occupancy) was found to be 0.0778. In the case of CGGACCCA, the binding signal (normalized occupancy) is 0.0773.

AATGGCGA: the binding signal (normalized occupancy) amounted to 0.0765. With TCTGGAAA the figure was 0.0735; with AACCATGG, 0.0757.

For CGACGCTC, the binding signal (normalized occupancy) was 0.0754. With CCAGACGC the figure was 0.0713. With CCATAAAC the figure was 0.0754; with AATGGGCG, 0.0783; with GCGCACGC, 0.0964.

With ACCATCGA, the binding signal (normalized occupancy) stood at 0.0777. The value for ATAAAATG was 0.0774. With CCCGGTGA the figure was 0.0716. The value for AGGACCCC was 0.0725. Regarding GAGACTGA, the binding signal (normalized occupancy) came out at 0.0697. The value for AAGTCCGG was 0.0654. With ATAATATA the figure was 0.0867; with CGTCAATA, 0.0761; with GAGCAGTA, 0.0709.

For GCAGAGGA, the binding signal (normalized occupancy) stood at 0.0715. ACAAGGGG: the binding signal (normalized occupancy) is 0.0766. With CGTGCCGA the figure was 0.0758; with GTAGTAGA, 0.0725; with GAACGAGA, 0.0786. The value for GCGTTGAA was 0.0796. With CGCGAGGC the figure was 0.0797; with CAGACTCG, 0.0745; with TAAAACGA, 0.0742. TATCCGCA: the binding signal (normalized occupancy) was 0.0786. For CGGAAATC, the binding signal (normalized occupancy) was found to be 0.066. The value for GGGGTAAA was 0.0797. With CTCTGCAG the figure was 0.0684; with ATCAAGGC, 0.0752; with ACTTGTAA, 0.081. The value for CACGGTGC was 0.0898. For the sequence ATTGCTTC, the binding signal (normalized occupancy) worked out at 0.0755. The value for AACACTTC was 0.0766. The value for ATTTACCA was 0.0786; that for ACTAAATG was 0.0762; that for AACACCAA was 0.0737. With GAATAAGC the figure was 0.076.

With AGTCACTA, the binding signal (normalized occupancy) was 0.0739.

With ACTTAAGT, the binding signal (normalized occupancy) came to 0.0703. In the case of CCGAAAAA, the binding signal (normalized occupancy) was determined as 0.0734. The value for GGGGCGAC was 0.0713. With ACACTTGG, the binding signal (normalized occupancy) turned out to be 0.0807. The value for ACGGCGTC was 0.0722.
